Measurements taken from ChEMBL document CHEMBL4888484, “Replenishing the malaria drug discovery pipeline: Screening and hit evaluation of the MMV Hit Generation Library 1 (HGL1) against asexual blood stage Plasmodium falciparum ,using a nano luciferase reporter read-out” (2022).
Hit rate of the full screen: of about 150,000 compounds, about 540 (0.36%) showed an effect of 50% or more. The list shows a part of the results.

tested on: Plasmodium falciparum; assay: Primary screen in NF54 nanoGlo assay, in single point, at 2uM, 72h; a lower Z score goes with more inhibition; format: functional, Erythrocyte; details: timepoint 72 hour

SMILES	% Inhibition [%]	Z score
CC1(NC(=O)CNC(=O)NC2CC2)CCCCCC1	-13	1.97
CC(C)CN(C(=O)c1ccc(Cl)c(S(=O)(=O)N2CCCCCC2)c1)C1CC1	4	-0.6
O=C1NCCc2c[n+](Cc3ccccc3)cn21	-14	1.8
CCn1ccc2ccc(CN3CCc4[nH]cnc4[C@@H]3C(=O)O)cc21	13	-1.86
Fc1ccc(-c2noc([C@@H]3Cc4[nH]cnc4CN3Cc3ccccc3)n2)cc1Cl	-3	0.43
CCCc1cc(CNS(=O)(=O)c2ccc(C)s2)on1	-4	0.56
CCC(C)(C)[C@@H]1CCCN1C(=O)c1coc(S(N)(=O)=O)c1	-6	1.06
Cc1nc(N2CCCC2C(=O)N2CCC(C(O)Cc3ccccc3)CC2)nc2ccccc12 (configuration not stated)	-15	1.71
CC1(C)CC(CS(=O)(=O)N2CCC(CC(N)=O)CC2)C1	-9	1.61
C[C@@H]1CN(c2ncccc2F)CC[C@]1(C)O	-19	3.66
O=C(c1ccc(F)cc1Cl)N1CC(N2CCc3ccccc3C2)C1	-1	0.22
COc1ccc(-c2cc3c(=O)n(Cc4nc(-c5ccccc5)oc4C)ccn3n2)cc1	-11	1.1
CCC[C@@H](CNc1ccc(C(C)C)nn1)N(C)C	-9	1.74
CCc1cn[nH]c1[C@H]1CCCN(c2nc3c(C)cccc3cc2CO)C1	0	0.06
CC(=O)N[C@H]1CCN(C(=O)Nc2c(-c3ccccc3)cnn2C(C)(C)C)C1	-15	1.36
O=C(N[C@@H]1CCC[C@@H]1C(=O)NCCCc1ccccc1)c1ccncc1	-16	2.15
Cc1cc(Nc2cnn(C)c2)n2nc(C)cc2n1	-9	1.61
CCOc1cccnc1C(=O)N1CCC2(CC1)CN(C(C)=O)[C@@H]1COC[C@@H]12	-12	1.88
Cn1nccc1CNCCNc1cccc(Br)c1	-5	0.75
Cc1c(-c2noc(C(=O)NCCN3CCN(c4ccccc4F)CC3)n2)oc2c(C)cccc12	-8	1.03
CCc1ccc(CN(C)CC2(C)COC2)s1	-12	1.52

SMILES	% Inhibition [%]	Z score
O=C1c2ccccc2O[C@@]2(C=Cc3ccccc3O2)N1Cc1ccccc1	-11	1.45
CCN(CC(=O)Nc1ccccc1OC)C(=O)c1ccc(S(=O)(=O)N2CCOCC2)cc1	34	-0.62
OC1CCN(Cc2ccc(CNCc3cc(F)ccc3F)cc2)CC1	-3	0.42
Cc1ccc(C[C@H](NC(=O)c2ccncc2)c2ccccn2)cc1	1	-0.15
Cc1nn(CC(=O)N2C3CCC2CC(O)C3)c(C)c1Cl (configuration not stated)	30	-3.43
CN(CCCc1ccco1)[C@H]1CS(=O)(=O)C[C@@H]1O	1	-0.14
O=C(O)c1cn(-c2nc(-c3ccc(Br)cc3)cs2)c2c(F)c(F)c(F)cc2c1=O	-1	0.18
O=C1CCCN1c1ccc(S(=O)(=O)Oc2ccccc2-c2ccccc2)cc1	-3	0.34
COc1ccc(CN2CCCN(c3ccc(NC(=O)COc4ccccc4)cn3)CC2)c(OC)c1OC	-5	0.52
CCCNC(=O)[C@H](C)NC(=O)C1CCN(C(=O)[C@H](Cc2c[nH]c3ccccc23)NC(=O)OC(C)(C)C)CC1	-4	0.5
CC(C)CNC(=O)c1cc2n(n1)CCN(Cc1cccc(Cl)c1)C2=O	-6	0.68
Cc1ccc(N2CCN(CCCNC(=O)c3nc(-c4cncnc4)no3)CC2)cc1C	-4	0.61
Cc1cc(F)cc(-n2cc(NC(=O)COC[C@H]3CCCO3)nn2)c1	-14	2.33
Cc1ccc(OC(=O)c2cccc(N3C(=O)C4CCC(c5ccccc5)CC4C3=O)c2)cc1C (configuration not stated)	-3	0.42
O=C(O)[C@@H]1CCCN1Cc1ccn(-c2ccccc2)n1	4	-0.6
CC(C)Cn1cc(NC(=O)C2(N)CCCC2)c(C(F)F)n1	-15	2.97
Cc1ccc(C)c(NS(=O)(=O)c2c(C)[nH]c(-c3nnc(C4CCC4)o3)c2C)c1	-7	0.93
COCCN1C[C@@H](C(=O)N2CCC3(CC2)Cc2cccc(c2)Oc2cccc(c2)CCNC3=O)CCC1=O	-13	1.65
CN(C)C(=O)CNC(=O)Cc1cccs1	-1	0.11
O=C(COc1ccc(Cl)cc1Cl)Nc1ccc2oc(-c3cccnc3)nc2c1	-15	2.9
COc1cccc(C(=O)N2CCC3(CC2)OC[C@@H](C(=O)NC2CC2)N3C(=O)c2ccc(F)cc2)c1	-10	1.26

SMILES	% Inhibition [%]	Z score
O=C(CN1CCOCC1)N1C2CCC1Cn1c(nn(Cc3ccccc3)c1=O)C2 (configuration not stated)	7	-1.21
CC(C)(C)[C@H]1CCc2oc3ccc(NS(=O)(=O)c4ccc5ccccc5c4)cc3c2C1	-1	0.24
CCOCCN(C)C(=O)Nc1ccncc1F	-5	0.6
CCOC(=O)Nc1nc(-c2ccccc2)c(C(=O)c2ccc(S(C)(=O)=O)cc2)s1	33	-1.07
Cc1oc(-c2ccc3ccccc3c2)nc1CN(C)[C@H]1CCOC1	-10	1.53
CC(C)n1cc(C2=CCN(C(=O)Nc3ccc4c(c3)OCCO4)CC2)c2cccnc21	1	-0.19
O=S(=O)(NCCc1nccs1)N1CCc2ccccc2C1	-5	0.67
NC(CCO)=NOCC(=O)Nc1cccc(C(F)(F)F)c1	-11	0.98
N#C[C@@]1(c2ccccn2)CCCN(C(=O)c2ccc(Cl)cc2F)C1	-9	0.91
CCOc1ccc(N2CCCCn3c2nc2c3c(=O)n(CCCc3ccccc3)c(=O)n2C)cc1	-11	1.29
COc1cc(C(=O)NCc2cc(C(F)(F)F)ccc2N2CCN(C)CC2)on1	-9	1.78
CC(C)C[C@@H](CNc1ncnc(N)c1Cl)N(C)C	-1	0.1
CC(C)CNC(=O)[C@@]1(OCc2cccc(Cl)c2)CC(OCc2ccc(C(F)(F)F)cc2)[C@@H]2OC(C)(C)O[C@@H]2C1 (some centres not stated)	-15	1.42
CCCNC(=O)CN[C@@H](C)c1cc(Br)ccc1F	-4	0.47
C=CCN1CCN(C(=O)c2csc(-c3ccc(OCc4ccc(Cl)cc4)cc3Cl)n2)CC1	8	-1.14
Cc1cc(C(=O)C(=O)O)c(C)n1-c1ccc2snnc2c1	-7	0.79
CN1CCC(NC(=O)C2(O)CCCC2)C1c1ccc(F)c(F)c1 (configuration not stated)	-3	0.46
CCc1nc(C[C@H]2CN(C(=O)CN3CC4(CCCC4)CC3=O)CCO2)no1	-8	1.53
O=C1[C@@H](NS(=O)(=O)c2cccc(F)c2)CCN1c1ccccc1	-4	0.65
CC(C)(C)OC(=O)N1Cc2cc(O)ccc2C[C@H]1C(=O)NCC1CC1	-13	2.51
Cc1ccc(NC(=O)N2CCc3c(c4ccccc4n3CC3CC3)C2)cc1	-6	0.91

SMILES	% Inhibition [%]	Z score
C=CCO[C@H]1[C@H](NC(=O)COC)c2ccccc2C12CCN(Cc1ccc(F)cc1Cl)CC2	11	-1.48
Cc1cnc(CCNC(=O)N[C@@H]2COc3ccc(F)cc3C2)c(C)c1	22	-2.81
COCc1ncc(CN2CCC[C@H]2c2nc3c(C)cccc3[nH]2)cn1	-3	0.57
N=C1C(c2nc3ccccc3s2)=C(O)CN1CC1CCOCC1	-6	0.73
Cc1ccncc1C(=O)N1CCC[C@@H]1CF	-7	0.81
CCc1nc(NC(=O)NCc2nccs2)nn1C	1	-0.19
C[C@H]1CCCCN1c1ccc(C(N)=O)cc1NC(=O)CCCn1cncn1	-17	1.48
CC(C)[C@@H]1CN(Cc2ccc(O)cc2)CCCN1CC1CC1	-2	0.34
CC(C)C(NCC(O)c1ccco1)c1ccc2c(c1)CCO2 (configuration not stated)	4	-0.68
CNC(=O)[C@@H]1C[C@H](NCc2cc(OC)c(OC)c(OC)c2)CN1CC(c1ccccc1)c1ccccc1	54	-11.4
Cc1ncnc(N(C)Cc2ncc(Br)cn2)c1C	-3	0.47
COCCc1cc(NC(=O)N2CC(C)C3CCCCC32)n(C)n1 (configuration not stated)	-10	1.26
c1cc(-c2nc(-c3ccc4c(c3)OCCO4)cs2)cs1	-9	0.73
CCc1nnc(-c2nnc(NCc3ccc4c(c3)OCO4)c3ccccc23)o1	1	-0.15
CC(C)CN1CCN(Cc2cn(C)nc2-c2cccc(Cl)c2)[C@@H](C)C1=O	10	-1.31
Cc1ccc(C)c(C2CCN(C(=O)Nc3cccn(C)c3=O)CC2)c1	-10	1.54
O=C(c1cnccn1)N1CC[C@@H]2CN(Cc3ccccc3)[C@@H]2C1	-10	1.19
Cc1cccc(Cn2c(=O)c(C(=O)N3CCOCC3)nn(-c3ccc(F)cc3)c2=O)c1	1	-0.14
